# The supplement of paper PMC4166925
# ± gives the standard deviation of the averaged measurements. Whole data set: some 33,000 sequences, median “E-score (dimensionless, -0.5 to 0.5)” near -0.046, cut for the highest 2% near 0.36. Some of the results follow.
# Test system: T1, SpTbr T-box DNA-binding domain (GST fusion)
# T1 sequence: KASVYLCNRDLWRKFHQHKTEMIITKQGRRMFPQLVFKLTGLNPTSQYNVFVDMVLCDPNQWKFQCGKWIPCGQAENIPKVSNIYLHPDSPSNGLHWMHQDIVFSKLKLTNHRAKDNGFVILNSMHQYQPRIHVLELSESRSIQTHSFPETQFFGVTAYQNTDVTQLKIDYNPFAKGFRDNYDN
# Assay: PBM E-score of 8-mer (E-score (dimensionless, -0.5 to 0.5)); Tbr is Tbrain of the sea star Patiria miniata (Pm) or the sea urchin Strongylocentrotus purpuratus (Sp); higher = stronger binding preference; most listed sequences are background and not binding sites
# Details: the construct has about 5 more residues each side
# Summary of the method: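 GST-fused Tbr T-box DNA-binding domains (the whole T-box plus about five flanking residues) were expressed in BL21 E. coli at 20 °C and purified by glutathione affinity chromatography. Universal Agilent oligonucleotide arrays were made double-stranded by primer extension, incubated with 200 nM protein in PBS (pH 7.5), then scanned and quantified. Every ungapped 8-mer was scored from probe intensities. The Universal PBM Analysis Suite gave each word an enrichment E-score, averaged over duplicate arrays.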
row,Sequence,PBM E-score of 8-mer
1,ACAACGGA,-0.066 ± 0.0092
2,GACCCGCC,0.0388 ± 0.1
3,CCACCACC,0.101 ± 0.038
4,AATTGAAT,-0.0274 ± 0.094
5,CTACCACC,0.204 ± 0.027
6,GTGACCCA,-0.0916 ± 0.13
7,CGTGCACG,0.00996 ± 0.044
8,ATCCGCGG,0.00978 ± 0.039
9,CGACCACC,-0.151 ± 0.08
10,GATGTTTA,-0.0147 ± 0.024
11,ATAATAGA,-0.218 ± 0.095
12,AGACAGGC,-0.156 ± 0.058
13,AAGGTCCT,-0.0127 ± 0.028
14,ATACACGA,-0.0819 ± 0.022
15,CATACATA,-0.329 ± 0.038
16,AATCGAGT,-0.0417 ± 0.017
17,AATAACGA,0.186 ± 0.02
18,CGATACCC,-0.00698 ± 0.068
19,AGTGTTCG,0.205 ± 0.041
20,CCTTACGA,-0.119 ± 0.021
21,ATCTCTAA,-0.118 ± 0.026
22,TCATAACA,0.148 ± 0.074
23,ATTTATCC,-0.12 ± 0.08
24,TAAAATTA,-0.167 ± 0.052
25,AGAACCCG,0.124 ± 0.004

row,Sequence,PBM E-score of 8-mer
1,CACATAGA,0.158 ± 0.042
2,ACAGATCA,0.0135 ± 0.021
3,GGCGTGGA,0.104 ± 0.013
4,CACTCTCA,0.317 ± 0.00081
5,GAAATTAA,-0.222 ± 0.12
6,AATCTAGC,0.023 ± 0.042
7,GCATCAGC,-0.093 ± 0.0066
8,TAGCATCA,0.0144 ± 0.028
9,TCCCAAAA,-0.271 ± 0.0059
10,CTCCGTTC,0.155 ± 0.012
11,CACAGACC,-0.0948 ± 0.053
12,CAAGCAGG,-0.325 ± 0.024
13,ACGGCCAA,-0.146 ± 0.049
14,AGCAACTC,0.0392 ± 0.07
15,CGTCTCGC,0.267 ± 0.055
16,AATCTGAA,-0.315 ± 0.065
17,ATCAGACC,-0.0133 ± 0.013
18,GATGTAGC,-0.198 ± 0.11
19,GGAAGTCC,-0.195 ± 0.0047
20,AATGAGCT,-0.0884 ± 0.019
21,ATCGCAAC,0.232 ± 0.0099
22,AATATGCA,-0.0665 ± 0.015
23,AAAGGCTC,-0.214 ± 0.06
24,ACCTCTTA,0.0296 ± 0.06
25,TCTCACAA,0.296 ± 0.014

row,Sequence,PBM E-score of 8-mer
1,CTGATTCA,-0.0453 ± 0.0073
2,CAGTTGGA,-0.0808 ± 0.0045
3,GACTATCA,0.14 ± 0.0065
4,ATCAAAAC,-0.0331 ± 0.1
5,CGTCGATA,-0.0449 ± 0.015
6,GAAGAGTC,-0.23 ± 0.028
7,CCCTGATA,-0.33 ± 0.1
8,ATGTTAAA,-0.132 ± 0.075
9,CATTGCCC,-0.249 ± 0.077
10,ACGGATGG,0.0385 ± 0.055
11,ACGAGGGC,-0.171 ± 0.051
12,GCCTCATA,-0.138 ± 0.044
13,AGTAATCC,-0.148 ± 0.061
14,AGGGCGAG,-0.0154 ± 0.0063
15,ACTGGTCG,-0.242 ± 0.076
16,GACAGCAA,0.207 ± 0.095
17,CGGTAAAG,-0.128 ± 0.036
18,CTGGACCC,-0.273 ± 0.069
19,ACGATCTA,0.0239 ± 0.057
20,ACTCAAGC,-0.127 ± 0.023
21,GATCGCAC,0.442 ± 0.0075
22,ATTTTATC,-0.0724 ± 0.048
23,AGAGGCCC,-0.318 ± 0.013
24,AGCGATTC,-0.168 ± 0.06
25,GCCAACCC,-0.0414 ± 0.077

row,Sequence,PBM E-score of 8-mer
1,GAGGTTAA,-0.0728 ± 0.0024
2,ACTCCTTG,-0.126 ± 0.059
3,AAATACGA,-0.24 ± 0.0075
4,ACGCTACC,0.0763 ± 0.082
5,CCATAGTA,-0.187 ± 0.0044
6,AGTGAACG,0.162 ± 0.051
7,CTGCTACC,-0.0436 ± 0.013
8,ATCGTGAC,0.219 ± 0.022
9,CAATTACC,0.162 ± 0.095
10,ATTCTCGA,0.0267 ± 0.0077
11,GCTTAGTA,-0.201 ± 0.025
12,ATCTAAAT,-0.089 ± 0.064
13,CTTCGGTC,-0.221 ± 0.051
14,CTTTCGCA,0.421 ± 0.015
15,AACTAAAC,-0.187 ± 0.0053
16,CGCCGGAG,-0.0395 ± 0.056
17,GCCATCGA,0.0625 ± 0.023
18,CAGGAGGC,-0.0988 ± 0.046
19,CACGAGGC,-0.0132 ± 0.011
20,CGGCAAAA,-0.0381 ± 0.004
21,CGGTCGTA,-0.141 ± 0.13
22,GCAAAAGC,-0.03154 ± 0.00023
23,GGGGTCCA,-0.249 ± 0.045
24,ACGAGGCA,-0.168 ± 0.038
25,CAAGGTAG,0.0244 ± 0.015

row,Sequence,PBM E-score of 8-mer
1,AAGCAATT,-0.202 ± 0.049
2,AGATGTGA,0.361 ± 0.025
3,TATGAAGA,-0.137 ± 0.033
4,GCATTTTA,-0.0869 ± 0.03
5,CGTGTGAG,0.4011 ± 0.0033
6,CATCGACC,0.0447 ± 0.036
7,GAATGATA,-0.0927 ± 0.06
8,ACGGCACT,-0.144 ± 0.06
9,AAAACTCA,-0.1 ± 0.013
10,CCGTCCTA,-0.308 ± 0.019
11,ACAGCTAT,0.157 ± 0.055
12,CAGTGACG,0.0986 ± 0.12
13,GCTGTTAA,0.162 ± 0.0053
14,ACGCGTTG,0.206 ± 0.032
15,CTTACGCC,0.177 ± 0.0022
16,ATCGGGTA,-0.204 ± 0.06
17,TACATCGA,-0.0975 ± 0.032
18,CCAGTTCG,-0.156 ± 0.03
19,AGGAATCC,-0.149 ± 0.064
20,GTACCAAC,-0.0291 ± 0.021
21,ATCGAAAC,-0.119 ± 0.06
22,GCCTAAAA,-0.0908 ± 0.017
23,CCTGCGCA,0.111 ± 0.048
24,CAGGCCCA,-0.331 ± 0.058
25,ACGCTGAC,0.0661 ± 0.013

row,Sequence,PBM E-score of 8-mer
1,TACGCATA,-0.156 ± 0.054
2,CTTGTCGC,0.315 ± 0.0039
3,TATCGAAA,0.026 ± 0.078
4,ACTGAGAT,-0.117 ± 0.046
5,AACTAAAG,-0.0231 ± 0.0062
6,AGGGAACA,-0.217 ± 0.0073
7,AAATATGG,-0.22 ± 0.077
8,CTTGGGCC,-0.1567 ± 0.001
9,ATCAAGGG,-0.0257 ± 0.016
10,CAGGATTA,-0.198 ± 0.045
11,GTATCAAC,0.0342 ± 0.029
12,CGAGCACC,-0.0427 ± 0.039
13,ACGACGAT,0.0587 ± 0.018
14,CAGAGATG,-0.126 ± 0.018
15,CATCTTCA,-0.0355 ± 0.006
16,CCTGACTC,-0.148 ± 0.0063
17,AGACCTTC,-0.26 ± 0.016
18,GCCCATCA,-0.222 ± 0.021
19,AACTGAAA,0.0396 ± 0.052
20,CCCAAGAC,-0.118 ± 0.058
21,CTCTCGCA,0.286 ± 0.033
22,GCGCCCGC,0.037 ± 0.07
23,GCGATCCC,0.179 ± 0.034
24,TCAATTGA,-0.0646 ± 0.015
25,CCAGCGCG,0.0431 ± 0.073

row,Sequence,PBM E-score of 8-mer
1,CATCGGTC,-0.0822 ± 0.071
2,GCAAGAAC,-0.07 ± 0.062
3,CAGAAATA,-0.184 ± 0.015
4,AACGGCAC,0.125 ± 0.012
5,CTCCGAAG,0.05362 ± 0.00038
6,GAGCTCGA,-0.193 ± 0.049
7,ATGCCCTC,-0.0953 ± 0.058
8,CTACAGAA,0.0406 ± 0.032
9,CCTTTGTC,0.0853 ± 0.038
10,ATCATCGC,0.102 ± 0.029
11,CCCTTGTA,-0.095 ± 0.058
12,TAGGCACA,0.16 ± 0.04
13,GTGATTTA,0.156 ± 0.047
14,TCCGGGAA,-0.247 ± 0.053
15,CAGAGATC,-0.204 ± 0.022
16,AATTTTTG,-0.177 ± 0.081
17,AATCGTGG,-0.0511 ± 0.015
18,CCCTCACG,0.153 ± 0.063
19,GCATGCCC,-0.197 ± 0.0077
20,GGGTTGAC,0.0787 ± 0.0039
21,AAAAGGAG,0.0274 ± 0.064
22,AGACGACG,-0.0597 ± 0.021
